Over roughly 33,000 sequences, “E-score (-0.5 to 0.5)” has its median near -0.035; the highest 2% begin near 0.35. The list shows a part of the results.
target: T1, Pdr3 (UniProt P33200); experiment: PBM E-score (8-mer binding enrichment) (E-score (-0.5 to 0.5)); higher = stronger / more preferred TF binding; most listed sequences are background and not binding sites; conditions: protein concentration: 200 nM; construct: GST-full length
T1 sequence: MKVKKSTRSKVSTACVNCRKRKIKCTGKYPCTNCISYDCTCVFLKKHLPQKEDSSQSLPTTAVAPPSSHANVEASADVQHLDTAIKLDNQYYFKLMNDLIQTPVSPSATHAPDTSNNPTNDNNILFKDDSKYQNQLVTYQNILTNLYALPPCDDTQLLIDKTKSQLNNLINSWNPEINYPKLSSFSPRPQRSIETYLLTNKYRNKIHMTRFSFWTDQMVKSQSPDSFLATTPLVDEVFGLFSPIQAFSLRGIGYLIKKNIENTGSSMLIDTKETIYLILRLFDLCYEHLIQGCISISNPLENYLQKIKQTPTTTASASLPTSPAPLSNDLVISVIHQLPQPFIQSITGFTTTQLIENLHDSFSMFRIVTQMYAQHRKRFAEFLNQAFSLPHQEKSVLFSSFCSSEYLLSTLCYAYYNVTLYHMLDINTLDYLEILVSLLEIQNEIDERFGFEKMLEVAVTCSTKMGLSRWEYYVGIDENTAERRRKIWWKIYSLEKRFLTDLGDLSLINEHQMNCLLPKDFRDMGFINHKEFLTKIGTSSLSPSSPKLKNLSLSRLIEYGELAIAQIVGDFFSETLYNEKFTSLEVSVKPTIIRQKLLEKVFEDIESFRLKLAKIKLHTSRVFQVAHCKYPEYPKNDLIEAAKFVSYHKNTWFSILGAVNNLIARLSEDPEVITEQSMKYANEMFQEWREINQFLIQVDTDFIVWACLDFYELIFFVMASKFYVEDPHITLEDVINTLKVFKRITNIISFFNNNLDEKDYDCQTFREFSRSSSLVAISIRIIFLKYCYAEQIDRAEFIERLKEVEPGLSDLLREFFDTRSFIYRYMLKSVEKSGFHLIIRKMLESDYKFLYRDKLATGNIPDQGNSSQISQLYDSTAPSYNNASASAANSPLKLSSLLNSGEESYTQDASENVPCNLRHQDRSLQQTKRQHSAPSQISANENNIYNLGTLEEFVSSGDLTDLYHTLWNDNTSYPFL
Outline: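 GST-tagged yeast TFs (full-length or DNA-binding domain) were made by PURExpress in vitro transcription/translation and applied at about 100-200 nM to universal all-10-mer Agilent arrays. The arrays were made double-stranded by primer extension, on fresh or once-stripped slides. Bound protein was detected with fluorescent anti-GST, and scans were normalised with masliner. Each ungapped eight-base word, pooled with its reverse complement, received an E-score (modified Wilcoxon-Mann-Whitney statistic) from the Universal PBM Analysis Suite.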

| Sequence | PBM E-score |
| --- | --- |
| CACAACGG | 0.0081 |
| CATGGCCG | 0.172 |
| GGTGTTTA | 0.0333 |
| CCGAGAGG | 0.0579 |
| GTTCGGGA | 0.233 |
| GAGCAAGA | 0.0319 |
| CAGCCTCG | -0.0552 |
| ATTCCGTG | 0.467 |
| ACTATCTA | -0.0229 |
| CAGAAGAG | -0.195 |
| CCGTCGCG | 0.323 |
| AAATTTGT | -0.0326 |
| AGGAAGAT | 0.0952 |
| GAGAAGAC | -0.218 |
| AGACTAAA | -0.133 |
| CACGCCAG | -0.0644 |
| ATCCGAGC | 0.307 |
| CCACGAAG | -0.257 |
| CTTTACCA | -0.316 |
| CCGTGCCG | 0.335 |
| CGTACAAA | -0.158 |
| CCTGCCCG | 0.2 |

| Sequence | PBM E-score |
| --- | --- |
| AGAATGTG | -0.22 |
| GTGAGATA | 0.125 |
| ATTATAAC | 0.0157 |
| CTGGGCCA | -0.269 |
| CCTGGATC | -0.0952 |
| ATCTTCTC | 0.178 |
| CTGCGCAG | 0.0626 |
| CTCACGCA | 0.0693 |
| CCATGCCC | 0.0192 |
| ACTTGTTA | 0.0318 |
| ACCCGCAA | 0.0725 |
| CGAACCTA | -0.0323 |
| GCTGGCAA | 0.0154 |
| ATTAGTGC | 0.15 |
| TCAGGCGA | -0.115 |
| CACAGCGG | 0.0611 |
| AATAGGGA | 0.0428 |
| GAACAATA | 0.253 |
| ATGCCAAC | -0.0832 |
| CAACGATA | -0.11 |
| AAATCTAG | -0.144 |
| GCGACTGA | -0.185 |

| Sequence | PBM E-score |
| --- | --- |
| GTGTTAGA | -0.0967 |
| AGGAGTCG | -0.215 |
| CAGCACAG | -0.0892 |
| AGATCCGC | 0.351 |
| ATCACGCC | 0.0371 |
| CCTACGCC | -0.298 |
| AGAGCGAG | -0.0919 |
| ACACACCA | -0.0588 |
| GTAGACGA | -0.201 |
| TCATAGAA | -0.0617 |
| GACGATAC | -0.0065 |
| GAAAGTAC | 0.0719 |
| AGAGCCCC | -0.225 |
| ACACTTGA | -0.202 |
| CCACATAC | -0.0749 |
| GACCAACA | 0.142 |
| ATAGAAGA | -0.121 |
| GCATCATA | -0.063 |
| ACATAGGT | -0.165 |
| GCAAATGA | -0.00701 |
| AATTTGCT | -0.114 |
| CAAATGCA | -0.243 |

| Sequence | PBM E-score |
| --- | --- |
| TAGTATGA | 0.0766 |
| CGAAAGAG | 0.00908 |
| ACCGCTAA | 0.00866 |
| CATTATCA | -0.167 |
| AGACAATA | 0.0405 |
| AGCGAAAG | -0.111 |
| AATTTAAT | 0.128 |
| GCGAGAGC | 0.0738 |
| GATTACGC | -0.0604 |
| ACCCGGGG | 0.357 |
| TAGTGGGA | -0.208 |
| CCGAGCCA | 0.295 |
| TCAGGAAA | -0.128 |
| ATATTGGA | -0.0572 |
| AAGTGATC | -0.176 |
| CTCGGTCA | 0.00197 |
| TACACGCA | -0.342 |
| TAAGCCAA | -0.0271 |
| ACACAATA | -0.0788 |
| GACAGTGA | -0.137 |

From the supplement of paper PMC3334620
